# ChEMBL document CHEMBL4888484, “Replenishing the malaria drug discovery pipeline: Screening and hit evaluation of the MMV Hit Generation Library 1 (HGL1) against asexual blood stage Plasmodium falciparum ,using a nano luciferase reporter read-out” (2022)
# Hit rate of the full screen: of about 150,000 compounds, about 540 (0.36%) showed an effect of 50% or more. This is one part of the list.
# System: Plasmodium falciparum
# Test: Primary screen in NF54 nanoGlo assay, in single point, at 2uM, 72h; a lower Z score goes with more inhibition
# Type: functional, Erythrocyte
# Details: timepoint 72 hour
SMILES,% Inhibition [%],Z score
C[C@@H]1CN(C[C@@H]2CN(C(=O)c3onc4c3CCCC4)C[C@@H]2CO)C[C@H](C)O1,-10,1.83
O=C1C[C@@H](C(=O)Nc2ccccc2)NC(N2CCN(Cc3ccccc3)CC2)=N1,-8,1.19
CN(Cc1ccccc1)C(=O)c1snc2c(=O)n(Cc3ccccc3)c(=O)[nH]c12,-10,1.71
O=C(NC[C@H]1O[C@@H](CO)[C@@H](O)[C@H]1N1CCN(c2ccc(F)cc2)CC1)c1ccc(F)c(Cl)c1,-8,1.16
COCCOc1ccccc1NC(=O)N1Cc2nc(C)n(C)c(=O)c2C1,-7,1.42
Cc1cc(S(=O)(=O)Nc2nonc2C)sc1C,-5,0.58
Cc1cc(S(=O)(=O)N2CC[C@H](O)CC(C)(C)C2)c(C)s1,-4,0.77
CCN(C(=O)CN1CCCC2(CC2)S1(=O)=O)c1cccnc1C,-2,0.37
Cc1cc(=O)[nH]c(NCCNC(=O)[C@H]2CCC[C@H](O)C2)n1,-5,1.01
O=S(=O)(c1ccccc1)N1CCN(c2nc3ccccc3c3nnc(-c4ccco4)n23)CC1,-13,1.47
O=C(CC1CC2CCC1C2)NC1CCNC1=O (stereo unspecified),16,-1.82
Cc1cccc(N([C@H]2CCS(=O)(=O)C2)S(C)(=O)=O)c1,-39,4.58
CN(Cc1nccs1)CC(C)(CO)CO,-14,1.96
Cc1nn(-c2ccc3nncn3n2)c(C)c1CCC(=O)NCc1ccc(Cl)cc1,1,-0.15
Cc1cc(NC(=O)N[C@@H]2CCCc3c(F)cc(F)cc32)n(C)n1,-2,0.43
CCOC(=O)c1cc(C(C)(C)C)n(C2CCN(C(=O)C(C)(C)OC(C)=O)CC2)n1,-1,0.12
COc1ccc(C(=O)N2CCC3(CC2)c2nc[nH]c2CCN3C(C)=O)c(O)c1,-12,1.39
Cc1nnsc1C(=O)NCc1nccc(N(C)C)n1,-3,0.59
C[C@H]1CN(C(=O)NCc2nc(C(C)(C)C)cs2)CC(=O)N1,-7,0.72
Cc1ccsc1CN1CC[C@H](CO)[C@H](NC(=O)c2cccnc2)C1,-19,2.61
O=c1nc(C2CC2)ccn1CCCOCCc1ccccc1,-4,0.46
Cc1csc(CN2CC[C@H]2c2ccc(F)cc2)n1,-7,0.89
Cc1ccc(Oc2ncc(Cn3ccc4ccccc43)s2)cc1,-7,0.85
N#Cc1cccnc1NCCCOC1CCOCC1,8,-1.42
CCN(C(=O)c1ccccc1-c1nnn[nH]1)[C@H]1CCCC[C@@H]1O,11,-1.41
COC1(CN2CCn3c(n[nH]c3=O)C2)CCCC1,-4,0.77
Cc1cc(C(=O)N(CC(=O)O)CC2CC2)sc1C,-7,0.62

SMILES,% Inhibition [%],Z score
CNc1ccccc1C(=O)NCC1CCCOC1C(C)C (stereo unspecified),-11,1.75
COc1ccc(CN(Cc2ccco2)C(=O)c2cccc(C(F)(F)F)c2)cc1OS(=O)(=O)c1cccc(C(F)(F)F)c1,4,-0.49
O=C1NCCN(C(=O)CN2CCCCCC2)[C@H]1c1cccc(F)c1,-13,1.83
CC(C)(O)Cn1ncnc1-c1sccc1Cl,-16,2.12
c1ccc2sc(N3CCCN(C[C@@H]4CCCN5CCCC[C@H]45)CC3)nc2c1,4,-0.5
CC(C)C(=O)N1CCN(c2nc3c(s2)C[C@@H](C(=O)NCc2ccccc2)CC3)CC1,-9,1.35
O=S(=O)(Cc1ccccc1)NCC1CN(CC(F)(F)F)C1,-2,0.3
CC(C)C[C@@H]1NC(=O)[C@H](CCCNC(N)=O)NC1=O,2,-0.38
COCc1nn2c(c1-c1ccccc1)NC(=O)C[C@H]2C(=O)Nc1cccc(OC)c1,-18,2.34
COC(=O)N1CCC(NC(=O)[C@@H](C)Cc2ccc(C)cc2)CC1,-14,1.16
COc1cnccc1C(C)NC(=O)NCC(O)c1cc(C)cc(C)c1 (stereo unspecified),-2,0.26
CCS(=O)(=O)N(C)C1CCN([C@@H](C)C(=O)NC(C)(C)C)CC1,-8,1.56
O=C1CN(c2nc(-c3ccccc3)nc3c2CCNC3)CCN1,-14,2.47
OC[C@H]1CN(c2nc(-c3ccccc3)cs2)C[C@H]1CN1CCC(O)CC1,-13,2.28
CCN(CC)C(=O)CCNC(=O)[C@H](C)NC(=O)CC1CCCCC1,-2,0.49
O=C(c1cc(F)cc(F)c1)N1CCN(c2nnc3ccc(Cl)cn23)CC1,35,-3.99
Clc1ccc2c(c1)/C(c1ccccc1Cl)=N\c1ccc(Cl)cc1/C(c1ccccc1Cl)=N\2,-25,4.34
Cc1ccsc1C(=O)N1CC2CC1CS2(=O)=O (stereo unspecified),-14,1.62
O=C(CN1CCCCC1=O)Nc1cccnc1C1CC1,8,-0.91
Cc1nc([C@H](C)NC(=O)N(Cc2ccoc2)C2CC2)no1,-11,1.46
C[C@@H]1N(C(=O)c2c[nH]nn2)CCOC1(C)C,-5,0.95
O=C(Nc1cc(Cl)ccc1Oc1ccc2ccccc2c1Br)c1cc(Cl)cc(Cl)c1O,-17,2.35
O=C(NS(=O)(=O)[C@@H]1CC=CCC1)C1CCC(F)(F)CC1,3,-0.51
NC(=O)NC(=O)CCN1CCS(=O)(=O)c2ccccc2C1,-12,1.08
O=C1CCCN1CCC(=O)N1CCC[C@H](OCc2ccccc2)C1,-14,2.73
O=C(N[C@H]1CCN(CCC(F)(F)F)C[C@@H]1O)c1ccccn1,-14,1.29
